Data published in PubChem BioAssay AID686971 (National Center for Advancing Translational Sciences (NCATS), 2013).
In all, about 360,000 compounds went through this assay and about 7,500 (2.1%) were called active. This list was built around the results that the source calls inconclusive (neither active nor inactive); the mix of calls is not that of the screen. The call rests on the fitted dose curve; in most records, active means well fitted cell-killing curve with a large enough effect; inconclusive means small, poorly fitted or top-dose-only effect, or effect the other way, or another doubt; inactive means no such curve, though single readings can be large or run the other way. Potencies of inconclusive entries are left out as doubtful fits.

test: qHTS for induction of synthetic lethality in tumor cells producing 2HG: qHTS for the HT-1080-IDH1KD cell line; conditions: HT-1080 IDH1 knockdown viability, ATP luminescence, 48 h; activity, negative = toxicity: at 46.1 µM (top of the series) unless noted
Source text: Unbiased genomic sequencing for 22 glioma genomes found recurrent mutation of IDH1 on chromosome 2q33, a gene encoding the cytosolic isoform of IIDH1 associated with the tri-carboxylic acid cycle (TCA) that catalyzes the oxidative decarboxylation of isocitrate, yielding alpha-ketoglutarate and CO2 via NADP+ to NADPH conversion. Subsequent studies confirmed the recurrent IDH mutations in up to 70% of secondary gliomas and in 10% of AML cases. In addition, the somatic mutation of cancer-associated IDH1 is a point mutation resulting in various amino-acid substituents at Arginine132 (IDH1 R132), a key residue found in the enzyme's active site that when mutated, results in the loss-of-function in metabolizing isocitrate but confers a gain-of-function to produce the oncometabolite 2-hydroxyglutarate (2HG). This in effect defines IDH1 as an oncogene and provides an extraordinary opportunity to discover chemical probes against mutant IDH1 that may translate into much needed new therapies for glioma and AML patients.
This assay aims to perform a synthetic-lethal screen for chemical probes specific for 2HG-producing tumor cells using matched paired cell lines (1) HT-1080-NT fibrosarcoma cell line that overproduces 2HG and (2) HT-1080-IDH1KD cell line which has IDH1 expression knocked-down. Desirable compounds are toxic to the NT fibrosarcoma cell line but not to the IDH1KD cell line. The data in this AID corresponds to the results of the qHTS against the HT-1080 IDH1KD cell line.
[1] Dang L, Jin S, Su SM. IDH mutations in glioma and acute myeloid leukemia. Trends of Mol Med. 2010; 16(9): 387-97.
[2] Dang L et al. Cancer-associated IDH1 mutations produce 2-hydroxyglutarate. Nature. 2010; 465(7300):966.
Molecular Libraries Probe Production Centers Network [MLPCN]
NIH Chemical Genomics Center [NCGC]
Assay Submitter (PI): Lenny Dang Ph.D., Agios Pharmaceuticals
Suspensions of trypsinized HT-1080-IDH1KD cells were dispensed into white, tissue culture-treated, solid 1536-well plates at 5uL/well (750 cells/well final concentration) in RPMI medium supplemented with 5% FBS. Plates were incubated at 37 degrees C for 2 hours, after which 23 nL of compounds or DMSO were delivered to each well using a pin tool. Plates were then incubated at 37 degrees C for an additional 48 hours. CellTiter-Glo viability reagent (Promega) was dispensed into wells (2.5uL/well) and incubated at room temperature for 10 minutes. The plates were measured on a PerkinElmer ViewLux plate reader for luminescent signal (clear filter, 1 sec exp.). DMSO-treated control wells and media-only (no cells) control wells were used to normalize %Activity of identified toxic compounds; DMSO-treated wells corresponded to 0%Activity (100% viability), while media-only controls were used to normalize 100%Activity (0% viability). To minimize variability between cell lines, both HT-1080-NT and HT-1080-IDH1KD lines were dispensed and treated with identical compound series in single batches.
Concentration-response curves were fitted to the signals arising from the resulting luminescence. The concentration-effect curves were then classified based on curve quality (r2), response magnitude and degree of measured activity, and compounds were subsequently categorized based on their curve class.
Potency means the concentration at half of the fitted maximal effect; tags describe the fitted curve by direction and shape.

Q: With `CCC1Sc2ccc(S(=O)(=O)Nc3ccc(OC)c(OC)c3)cc2NC1=O` (stereo unspecified) as the compound, how does the activity, negative = toxicity read?
A: inconclusive: -22% [cytotoxic]

Q: With `COc1cc(-c2nc3ccc(C)cn3c2Nc2ccc3c(c2)OCCO3)ccc1O` as the compound, how does the Potency read?
A: inconclusive [cytotoxic, single point]

Q: With `CCOC(=O)c1ccc(NC(=O)NC2CC3CCC(C2)N3Cc2nnnn2C(C)(C)C)cc1` (stereo unspecified) as the compound, how does the “activity, negative = toxicity” value read?
A: inactive: -5.83%

Q: Which Potency does the source give for `COc1ccc([N+](=O)[O-])cc1NC(=S)NC(NC(=O)C(c1ccccc1)c1ccccc1)C(Cl)(Cl)Cl` (stereo unspecified) here?
A: active: 5.8 µM

Q: Which Potency does the source give for `Cc1cc(Cl)ccc1N=c1ssnc1Cl` here?
A: active: 23.1 µM

Q: With `Cc1ccccc1Oc1nc2c(C)cccn2c(=O)c1/C=C(\C#N)C(=O)NC1CCS(=O)(=O)C1` (stereo unspecified) as the compound, how does the Potency read?
A: active: 13 µM

Q: For `O=C(CSc1nncs1)Nc1ccc(N2CCCCC2)cc1`, which “activity, negative = toxicity” value is on record?
A: inactive: -6.08%

Q: Which “activity, negative = toxicity” value does the source give for `CC(C)Nc1ncnc2c1ncn2[C@H]1CN(Cc2cccs2)C[C@@H](CO)O1` here?
A: inactive: 19.4%

Q: With `CCCCc1c(-c2ccccc2OC)ncn1CCc1ccccc1OC` as the compound, how does the Potency read?
A: active: 13 µM

Q: For `CCOc1ccc(-c2c[n+]3c(n2-c2ccccc2)CCCCC3)cc1`, which Potency is on record?
A: active: 18.4 µM

Q: Which Potency does the source give for `CCN(CC)CCN1C(=O)c2cccc3cc(N)cc(c23)C1=O` here?
A: active: 32.6 µM

Q: Which “activity, negative = toxicity” value does the source give for `CCN(CC)CC(=O)Nc1ccc(-c2nc3cc(NC(=O)CN(CC)CC)ccc3o2)cc1` here?
A: inactive: -2.92%

Q: With `CCOC(=O)N/N=C/c1c(C)nn(-c2cccc(C(F)(F)F)c2)c1Cl` as the compound, how does the Potency read?
A: active: 2.31 µM

Q: With `COC(=O)[C@]12CCCCC=C1N(Cc1cccc3ccccc13)C(=O)[C@H](CC(=O)N1CCN(C(=O)c3ccco3)CC1)C2` as the compound, how does the Potency read?
A: inconclusive [cytotoxic, single point]

Q: With `CCOC(=O)C(=O)Nc1ccc(S(=O)(=O)Nc2nccs2)cc1` as the compound, how does the “activity, negative = toxicity” value read?
A: inactive: 8.57%

Q: With `CCOc1ccc(CN2CCN(C(=O)c3ccccc3)CC2)cc1` as the compound, how does the Potency read?
A: inconclusive [cytotoxic, single point]

Q: With `COc1cc(OC)cc(C(=O)NC(=S)NNC(=O)c2cnccn2)c1` as the compound, how does the Potency read?
A: inconclusive [cytotoxic, partial curve]

Q: With `CCCCOC(=O)Nc1nnc(COc2ccccc2)s1` as the compound, how does the Potency read?
A: inconclusive [rising, single point]

Q: Which Potency does the source give for `COc1cc(NC(=O)c2ccc(NS(=O)(=O)c3c(C)noc3C)cc2)cc(OC)c1` here?
A: inconclusive [cytotoxic, single point]

Q: With `O=C(Nc1cccnc1)c1cccc(F)c1` as the compound, how does the Potency read?
A: inconclusive [rising, partial curve]

Q: For `COc1cccc(C2=CC(c3cc(OC)ccc3OC)n3nnnc3N2)c1` (stereo unspecified), which Potency is on record?
A: inconclusive [cytotoxic, partial curve]

Q: For `COc1ccccc1C(=O)NC(C)c1ccccc1` (stereo unspecified), which “activity, negative = toxicity” value is on record?
A: inactive: 0.403%

Q: For `COc1ccc2[nH]c3c(c2c1)CCNC3C1CC=C(C)CC1` (stereo unspecified), which Potency is on record?
A: inconclusive [cytotoxic, single point]

Q: For `O=C(NC(=S)Nc1ccc2nc[nH]c2c1)c1ccccc1`, which “activity, negative = toxicity” value is on record?
A: inactive: -14.2%

Q: Which Potency does the source give for `O=C(Nc1nonc1-c1ccc(Cl)cc1)c1ccccc1` here?
A: inconclusive [cytotoxic, partial curve]

Q: For `O=C(Nc1ccc(Cc2ccncc2)cc1)c1ccc([N+](=O)[O-])o1`, which Potency is on record?
A: active: 5.17 µM

Q: With `Cc1ccc(C)c(NC(=S)NNC(=O)c2csc3c2CCC(C)C3)c1` (stereo unspecified) as the compound, how does the Potency read?
A: inconclusive [cytotoxic, single point]

Q: Which activity, negative = toxicity does the source give for `C=C(C)c1ccc(C(C)(C)NC(=O)NCc2ccco2)cc1` here?
A: inactive: -9.72% [at 9.24 µM]

Q: For `CCOC(=O)CCCNC(=O)CCNC(=O)c1ccc(OCC(C)C)cc1`, which Potency is on record?
A: inconclusive [rising, partial curve]

Q: For `COc1ccc(CCN2C(=O)c3ccncc3C2=O)cc1OC`, which “activity, negative = toxicity” value is on record?
A: inactive: 5.16%

Q: For `CCCN1CCC(C(=O)NC(c2ccc(Cl)cc2)c2ccsc2)CC1` (stereo unspecified), which Potency is on record?
A: inconclusive [cytotoxic, single point]

Q: With `OCCN1CCN(c2ncnc3sc(-c4ccccc4)cc23)CC1` as the compound, how does the Potency read?
A: inconclusive [cytotoxic, single point]

Q: With `O=C(NCc1cccs1)C1CC(c2ccc(Cl)cc2)=NO1` (stereo unspecified) as the compound, how does the Potency read?
A: inconclusive [cytotoxic, partial curve]

Q: For `O=C(COc1ccc(Br)cc1)Nc1nc(-c2cccnc2)cs1`, which Potency is on record?
A: inconclusive [cytotoxic, single point]

Q: Which Potency does the source give for `CN(Cc1ccccc1)CC(O)COc1ccc(CNCc2cccnc2)cc1` (stereo unspecified) here?
A: inconclusive [cytotoxic, partial curve]

Q: With `Cc1ccc(OCC(=O)c2ccc(Cl)s2)c([N+](=O)[O-])n1` as the compound, how does the “activity, negative = toxicity” value read?
A: inactive: 5.02%
